This passage reports self-cleavage results from the RNAGym collection of RNA variant scans (doi:10.7554/elife.90254).

The chains are these.
B1: OR4K15 (parent)
chain: GUUAACGGUCAUAGGCCAUGGAAACUAGGAGCACCAUUUCGCUGCCAGUGAAGAAAUGAACAAAGAAAAUCUGGGCCAGGCAGGCAUCAAAAGAAAUAGUCUUGCGCUCAACCAGAAAGUCUGUAAUCAUUUUAAGGGUA

Read counts are not given, so values of variants with three or more changes are uncertain.

Variants of B1 are the subject of this data set. Description: self-cleavage, relative activity (ratio to wild type); higher = more cleavage; in vitro, sequencing; the parent is a self-cleaving ribozyme.
Regarding A11G U38C A91G, the self-cleavage amounted to 1.09.
As to U12C A18G U132C, the self-cleavage came to 1.23.
To U12A U103A U122C belongs 1.21.
With A11U A47G U72C, the self-cleavage was found to be 0.21.
Take U12C A51G A52G U122C: the self-cleavage was found to be 1.55.
As to A11U A110G U127C, the self-cleavage turned out to be 0.09.
Consider U12C A51G A52U, for which the self-cleavage is 1.18.
Take U12C U87A A92G U122A: the self-cleavage was 0.86.
Consider A11G U37C A94U G106A U132C, for which the self-cleavage turned out to be 0.04.
To U12C U39C A52G A59G A64U A91G belongs 0.24.
Turning to A13G C46U A89C, the self-cleavage turned out to be 1.47.
In the case of A13G A24G A118G, the self-cleavage came to 0.81.
To U12C U38C A78U A94G belongs 0.41; to A13G G80A U103C U131C, 0.31.
Turning to U12C C17A U72C G80A A125G, the self-cleavage stood at 0.
The result for U12C A51G A92C A118G reads 0.63; that for A13G A23G A110G A116G, 0.05; that for A13G A55G G123A, 1.06.
The result for A13G A51G U57C A94G U127C reads 1.13; that for A11U U39A U108A, 0.03; that for U12C A47G A52G A56G A91G A92U U103C, 0.38.
To U12C A33G A68G A82G belongs 0.29; to A11U U103C A114G, 0.12; to U12C A22U A51U A94G C107A, 0.02.
For A13G A22G A24G A60G A96G A129G G138A, the self-cleavage was found to be 0.55.
To A11U A60G U87A A111G A114U belongs 0; to A13G A24G G93A, 1; to A13G A33G A59G A69G, 0.65.
Take A11U A96G U131C A135U: the self-cleavage was found to be 0.93.
Take U12A A117G A126U U131C: the self-cleavage came out at 1.31.
The result for U12A A92C U102C reads 2.04; that for A11U U49C U87C A91G U122C, 0.47; that for A11U U37C A90G, 0.99.
Regarding U12C A59G C101U U130A, the self-cleavage was 0.32.
U12C G53A U124C: the self-cleavage is 0.47.
As for U12G A51G U124C U131C, the self-cleavage worked out at 0.67.
The result for A11U A91G U108C reads 0.01; that for U12A A23G A51C A82G, 0.66; that for A13G A116G A125G, 0.
To A11G U38A A54G U100C A111G belongs 0.04; to U12A U49A U70C G79A U87A U97A, 0.36.
The result for A11U A54G A69G reads 1.55; that for A13G A90G A95G, 1.72.
As for U12C C42U U87C A125G, the self-cleavage amounted to 0.24.
Take U12C A110U A135G: the self-cleavage amounted to 1.06.
As to U12A A52G A78U A96G A110G A129U, the self-cleavage came out at 0.03.
To U12C A18U A126G A135C belongs 1.42; to A13G A68G A78U A111G, 0.06; to A11G U132A A140G, 0.87.
For A13G A22G U87C U132A, the self-cleavage worked out at 1.57.
Take A11U A13G A66G U108C: the self-cleavage was 0.03.
The result for A13G A95G U100C reads 1.62; that for A11U A22G A125U, 1.74; that for U12A U43A U133C, 2.54.
To U12C A56G U70C A92G belongs 1.17; to U12C A55G U132C, 1.09; to U12A U37C C107U, 0.02.
To U12C G20U A66G U130C belongs 0.62; to U12C U38C U108A, 0.01.
On to A13G A67G U127C, for which the self-cleavage was 0.65.
For A13C A69G U70C U127A, the self-cleavage turned out to be 0.49.
The result for U12C U70A U87C A114C A126U U130C reads 0; that for A13G A23G A94G, 1.27.
With A13G A94C A114G, the self-cleavage worked out at 0.67.
The result for A11U A117C A125G reads 0.
To A11U A111G A126G U127C A140G belongs 0.01; to A11U A27G G28U U103C, 0.31; to A13G A67G A82G A111G U120C, 0.04.
As to U12C G31A U38C A56G G80A A82U, the self-cleavage came out at 0.07.
In the case of A11U G65A A66G A92G, the self-cleavage amounted to 0.66.
Regarding A11G U49C A90G U102C, the self-cleavage was 1.54.
Regarding A13G A90G A94G, the self-cleavage stood at 0.26.
A13G A78G U87A A96G: the self-cleavage came out at 0.53.
Turning to U12C U43C U70C A111U A118G, the self-cleavage is 0.
In the case of U12C C25A A52G A91G, the self-cleavage came out at 1.29.
The result for A11G U43A A117G reads 1.19.
U12A A52U U120C: the self-cleavage stood at 1.76.
The result for A11G U57A U100C reads 1.97; that for U12C C40A G74A, 0.25.
As for A13G A59U A66U, the self-cleavage worked out at 1.13.
To U12C A90G A111G A117G U120C belongs 0.01; to U12A A66G U70C, 1.05.
The result for U12C A33G A91G reads 0.55; that for U12A A18G A33G A52G A60G, 0.62; that for A11U U102C U108A A114G A129U, 0.
Turning to U12C A22U A68G U100A, the self-cleavage was determined as 0.8.
A11U U38C A67C A117G: the self-cleavage came to 2.14.
A13G A30G A82U A95G A118G: the self-cleavage is 0.22.
To U12C A30G G31U U97C U139A belongs 0.49; to A11U U70C A86G A92G U97C A117G A118G, 0.18; to U12C U37C A52G A64G A114U, 0.12.
To U12C U57C A67G belongs 1.59.
The result for U12C U37C A55C A59U U120C reads 0.9; that for U12C U19C A66G, 1.1; that for U12C A18U A68U A94G, 0.79.
Turning to U12C C32U A116G U130C, the self-cleavage was determined as 1.22.
Take A11U A91G A125G: the self-cleavage was 0.69.
The result for A13G A47G A69U A95G reads 1.29; that for U12C A62G A86G, 1.25.
As to A13G A24U U43C A66G, the self-cleavage came to 1.87.
With A11G U108C U127C, the self-cleavage was 0.01.
The result for A11G U38C U72C reads 0.24; that for U12C C34U A94G U103C U127C, 0.3.
To A11G U57C A78G belongs 0.32; to A11U C46U A52G A59G A114C, 0.01.
The result for A13G A30G A92G A140G reads 0.93.
For A13G A47G C71A U72C U130C, the self-cleavage was 0.09.
The result for U12C A30G U108C reads 0; that for A11G U49G A95U, 0.4.
With U12G U19C U127C, the self-cleavage came to 0.29.
For U12C A78G A89G A92G A117U, the self-cleavage worked out at 0.2.
A11U U103C U108A: the self-cleavage stood at 0.01.
The result for U12C U19C C85U A91G A116G reads 0.11; that for A11U A67G G106C, 0.01; that for A13G G104A U127C A129C, 0.24.
Regarding U12C A23U A94G U100C U131A, the self-cleavage came to 2.02.
Take A11G U49A A90G U103C: the self-cleavage stood at 0.61.
A11U A59G A60U A63G: the self-cleavage was 0.43.
With U12C A51G A66G, the self-cleavage came to 1.16.
Regarding A13G A92G C109U, the self-cleavage came to 0.89.
The result for A11U G41A A89G reads 1.27.
Consider U12C A47U A63U, for which the self-cleavage is 0.61.
On to U12G A27G U37A A89G G104A A118G, for which the self-cleavage amounted to 0.04.
To U12A A24C A63G belongs 1.24.
The result for A13G A22C A27U reads 0.95; that for U12C A52G A67G, 1.54.
Turning to A11G U39C U57C U120C, the self-cleavage came to 0.82.
To A11G U100C A126G belongs 1.41.
The result for U12A A64G C81U A110G U130A reads 0.09; that for U12A A94G A96G U97A, 1.17; that for A13G U26C A89G A96U, 0.79.
To U12A U38A C45G A52G U70C belongs 1.15.
For U12G U38C A62G U130G, the self-cleavage was 1.78.
To U12C A59U U100C belongs 1.56; to U12A A68G A118G A126G, 0.44.
The result for A11U A13G A36G A91C reads 1.4; that for U12C C16A A92G, 0.71.
Take U12A A56G G106A U130C: the self-cleavage was found to be 0.02.
In the case of A11G U43C U97C A135G, the self-cleavage was 1.1.
As to A11U U43C U100C A129G, the self-cleavage stood at 1.79.
The result for A11U A24U U120C reads 0.94; that for A13G A18U A30G, 0.11; that for U12C A13G U102C, 0.62.
As for A13G A30G U37C U131C, the self-cleavage came to 1.27.
For the variant A13G A68G G80A A111U U122A, the self-cleavage is 0.08.
On to U12A A24C A33G C40U A56G A82G, for which the self-cleavage was 0.43.
On to A13G A64G A116G A118G, for which the self-cleavage amounted to 0.08.
To A13G A63G U127C belongs 0.46; to U12C A66U A92G A95G, 1.61.
Take A13G A60G U120C: the self-cleavage was found to be 1.09.
To A11U A86U A91G belongs 1.49.
As to A13G A27G A64G A118G, the self-cleavage is 0.81.
To A11G U39C A116G belongs 0.17; to U12C A24G A33U A55G A64G, 0.94.
The result for U12C U39A A52U U70C C76U A82G U122C reads 0.12; that for A11U A51G U122C, 1.64.
Consider A13C A47U A98G A114U, for which the self-cleavage is 0.03.
For the variant A11U A91G U100C A126G, the self-cleavage is 1.44.
To A11U U39A A55G belongs 1.23; to U12G U49C A69G U131C, 1.39; to A11G U57A U102C, 1.09.
As to A11U A23G A89U, the self-cleavage stood at 0.61.
The result for A13G C77U A82U U108A reads 0.11.
On to U12C U102C U108C U122C, for which the self-cleavage stood at 0.
As for A13G A69G U102C, the self-cleavage stood at 1.22.
To A11G U43C A47G A63U U108C C121A belongs 0.05; to U12A A68G A91G, 0.66.
